Measurements from patent publication US20030044768A1 (Dana-Farber, published 2003).

T1: soluble form of human B7-1 (human, UniProt P33681 35-242, limits assumed)
T1 construct: also called soluble B7-1
T1 sequence (looked up): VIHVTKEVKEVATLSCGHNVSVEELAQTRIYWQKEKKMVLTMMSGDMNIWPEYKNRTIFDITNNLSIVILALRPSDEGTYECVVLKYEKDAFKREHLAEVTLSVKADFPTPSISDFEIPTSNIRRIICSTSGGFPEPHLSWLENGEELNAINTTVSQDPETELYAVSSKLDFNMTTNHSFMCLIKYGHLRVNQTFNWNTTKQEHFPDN

T2: soluble form of human B7-2 (human, UniProt P42081 24-247, limits assumed)
T2 construct: also called soluble B7-2
T2 sequence (looked up): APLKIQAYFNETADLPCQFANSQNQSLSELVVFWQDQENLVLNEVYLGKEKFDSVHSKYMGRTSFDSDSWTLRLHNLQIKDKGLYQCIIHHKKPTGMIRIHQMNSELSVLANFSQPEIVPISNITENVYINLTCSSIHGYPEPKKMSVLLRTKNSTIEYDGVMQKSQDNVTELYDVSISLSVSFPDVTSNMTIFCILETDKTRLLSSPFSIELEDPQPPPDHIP

B1: human PD-1.Ig (Ig portion not stated in the experiment) (Fc fusion)
chain: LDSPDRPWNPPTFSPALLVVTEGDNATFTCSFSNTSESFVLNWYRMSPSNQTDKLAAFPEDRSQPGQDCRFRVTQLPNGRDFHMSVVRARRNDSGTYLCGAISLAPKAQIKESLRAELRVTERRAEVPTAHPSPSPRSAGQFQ
notes: Probably the same as m1 or m2; also called hPD-1.Fc; PD-1.Fc; not shown: Ig/Fc portion
B2: murine B7-4 expressed on transfected cells (ligand)
chain: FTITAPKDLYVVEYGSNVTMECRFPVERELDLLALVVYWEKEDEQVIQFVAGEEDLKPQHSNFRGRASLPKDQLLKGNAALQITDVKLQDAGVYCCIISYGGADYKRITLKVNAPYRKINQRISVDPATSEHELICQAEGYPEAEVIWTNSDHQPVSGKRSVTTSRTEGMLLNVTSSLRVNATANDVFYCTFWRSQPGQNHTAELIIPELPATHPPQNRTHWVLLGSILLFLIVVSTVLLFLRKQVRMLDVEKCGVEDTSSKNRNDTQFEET
notes: also called mouse B7-4; mB7-4

Assays:
[1] = molecular target: T1, soluble form of human B7-1; experiment: BIACORE, human PD-1.Ig immobilized
[2] = molecular target: T2, soluble form of human B7-2; experiment: BIACORE, human PD-1.Ig immobilized
[3] = molecular target: B2; experiment: flow cytometry on CHO cells expressing murine B7-4
[4] = molecular target: T3, human B7-4M expressed on transfected COS or CHO cells (human, UniProt Q9NZQ7); experiment: flow cytometry on CHO cells expressing human B7-4
T3 construct: Full-length B7-4M cDNA expressed on COS or CHO cells; also called PD-L1

[5] = molecular target: T4, human CTLA4-Fc (human Ig gamma 1) (human, UniProt P16410 37-161; P01857 part only = IgG part); experiment: flow cytometry on CHO cells expressing murine B7-4
T4 construct: also called CTLA4-Ig; hCTLA4

T3 sequence (Q9NZQ7 19-290): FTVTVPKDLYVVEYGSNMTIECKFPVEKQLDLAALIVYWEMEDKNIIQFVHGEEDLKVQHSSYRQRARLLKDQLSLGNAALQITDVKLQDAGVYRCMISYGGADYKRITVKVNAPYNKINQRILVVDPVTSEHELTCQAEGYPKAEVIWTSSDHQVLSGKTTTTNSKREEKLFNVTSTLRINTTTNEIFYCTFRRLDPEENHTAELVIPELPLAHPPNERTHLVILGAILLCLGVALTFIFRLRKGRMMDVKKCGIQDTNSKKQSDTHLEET

Row | binding result [1] | binding result [2] | binding result [3] | binding result [4] | binding result [5] | Binder
1 | no binding | no binding | binds | binds | – | B1
2 | – | – | – | – | no binding | B2
